The values below come from the supplement of paper PMC4723716.

± gives the uncertainty stated by the source. Whole data set: some 9,900 compounds, median “viability index relative to DMSO control” near 1, cut for the lowest 2% near 0.85. The list shows a part of the results.

This assay relates to Plasmodium falciparum NF54 stage V gametocytes. The experiment in a line: viability index relative to DMSO control (fraction); higher = less gametocyte killing. The conditions noted are these: 2.5 µM, library set: Broad Institute DOS, incubation time: 72 h. The gist of the method: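 Stage V gametocytes of P. falciparum NF54 were held in serum-free screening medium at 0.75% gametocytemia and 1.25% hematocrit, 10 µl per well of a 1,536-well plate, and exposed to compound at 2.5 µM for 72 hr at 37°C under low oxygen. A 3 µl mix of 2.5 µM MitoTracker Red CMXRos with 0.13% saponin was then added for one to two hours, after which one field per well was imaged and red particles of 20–70 µm2 were counted. The viability index equals this count divided by the plate mean from wells given solvent alone.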
As to `O=C(N[C@H]1CC[C@H](CC(=O)N2CCOCC2)O[C@@H]1CO)c1cccc(F)c1`, the viability index stood at 0.995 ± 0.03. Next, `COCC(=O)Nc1ccc2c(c1)OC[C@@H](C)N(Cc1ccccc1C(=O)O)C[C@@H](C)[C@H](OC)CN(C)C2=O`: 1.074 ± 0.0068. For `O=C(CCN1CCCCC1)N[C@H]1CC[C@@H](CCn2cc(-c3cccc(F)c3)nn2)O[C@@H]1CO`, the viability index was 1.05 ± 0.089.

The compound `CNC[C@H]1Oc2ccc(NC(=O)NC3CCCCC3)cc2CC(=O)N([C@@H](C)CO)C[C@H]1C` registered a viability index of 1.06 ± 0.061. The figure for `CCCNC(=O)N(C)C[C@@H]1Oc2ncc(C#CC3CCCCC3)cc2C(=O)N([C@H](C)CO)C[C@H]1C` is 1.06 ± 0.018; for `COCC(=O)N1C[C@@H](C)[C@H](OC)CN(C)C(=O)c2ccc(NC(=O)c3ccc(-c4ccccc4)cc3)cc2OC[C@H]1C` it is 1.11 ± 0.032. `CN(C[C@@H]1N[C@H](CO)[C@@H]1c1ccc(-c2cccc(F)c2)cc1)C(=O)CC1CC1` came in with a viability index of 0.99 ± 0.086. Next, `N#C[C@H]1[C@H](c2ccc(-c3cccc(F)c3)cc2)[C@@H](CO)N1c1nc(-c2ccccc2)cs1`: 1.12 ± 0.014. The figure for `CN1C(=O)c2cc(NC(=O)Nc3ccccc3Cl)ccc2OC[C@@H]2O[C@H](CC(=O)O)CC[C@H]21` is 0.907 ± 0.024; for `O=C(NCCCN1CCOCC1)[C@H]1[C@H](CO)[C@H]2Cn3c(cccc3=O)[C@@H]1N2C(=O)NC1CCCC1` it is 0.996 ± 0.034. The figure for `O=C(C1CCC1)N1C[C@@H]2N[C@H](C1)[C@@H]2c1ccc(/C=C/c2ccccc2)cc1` is 0.799 ± 0.019. On to `O=C(C[C@@H]1C=C[C@H](NC(=O)c2cnccn2)[C@@H](CO)O1)NCc1ccccc1F`, for which the viability index worked out at 1.09 ± 0.077. The figure for `C[C@H]1CN([C@@H](C)CO)C(=O)Cc2cc(N(C)C)ccc2O[C@H]1CN(C)C(=O)NC1CCCCC1` is 0.9183 ± 0.0053; for `COc1ccc(-c2ccccc2[C@H]2[C@@H](CO)N(C(=O)C3CCC3)[C@H]2C#N)cc1` it is 1.1 ± 0.11; for `C/C=C/c1ccc2n(c1=O)C[C@H]1[C@H](CO)[C@@H](C(=O)NCC(F)(F)F)N(C(=O)c3cccnc3)[C@@H]21.C/C=C\c1ccc2n(c1=O)C[C@H]1[C@H](CO)[C@@H](C(=O)NCC(F)(F)F)N(C(=O)c3cccnc3)[C@@H]21` it is 0.992 ± 0.086.

`COc1cccc(-c2ccc3c(c2)[C@@H]2[C@@H](CCN2S(=O)(=O)c2ccccc2F)[C@H](CO)N3)c1` had a viability index of 0.986 ± 0.13.

Compound `CN1C(=O)c2cc(NC(=O)c3cccc(F)c3)ccc2OC[C@@H]2O[C@@H](CC(=O)NCc3ccccc3Cl)CC[C@H]21` yielded a viability index of 0.999 ± 0.057. The figure for `O=C(C1CCCCC1)N1[C@H](CO)[C@H]2c3ccccc3N(S(=O)(=O)c3ccccc3)C[C@H]21` is 1.02 ± 0.039. Next, `O=C(C[C@H]1CC[C@H]2[C@@H](COC[C@H](O)CN2CCc2ccccc2)O1)NCCCN1CCOCC1`: 1.04 ± 0.046. Next, `CCc1cnc(N2[C@@H](C#N)[C@@H](c3ccc(C4=CCCCC4)cc3)[C@@H]2CO)s1`: 1.05 ± 0.022. For the compound `COCC(=O)N1[C@H](CO)[C@@H](c2ccccc2)C12CN(Cc1cc(F)ccc1F)C2`, the viability index was 1.07 ± 0.023. For `CCC(=O)N1[C@H](CO)[C@H](c2ccccc2)[C@H]1CN(CC1CCC1)S(C)(=O)=O`, the viability index is 0.9339 ± 0.008. Next, `CCCN(C)C[C@H]1Oc2cc(/C=C/c3ccccc3)ccc2S(=O)(=O)N([C@H](C)CO)C[C@H]1C`: 1.05 ± 0.026. The figure for `CN1CCN(C(=O)C[C@H]2CC[C@H]3[C@H](COc4ccc(NC(=O)c5cccs5)cc4C(=O)N3C)O2)CC1` is 1.04 ± 0.038; for `CCCNC(=O)N(C)C[C@@H]1[C@@H](c2ccccc2)[C@H](CO)N1C(=O)c1ccccc1` it is 0.953 ± 0.014. The figure for `CO[C@H]1CN(C)C(=O)c2ccc(NC(=O)c3nc4ccccc4s3)cc2OC[C@H](C)N(Cc2cccnc2)C[C@H]1C` is 1.051 ± 0.0049. The compound `CCC(=O)N1CC2(C1)[C@@H](c1ccc(-c3cccc(C)c3)cc1)[C@H](CO)N2S(C)(=O)=O` came in with a viability index of 1.1 ± 0.019.

For the compound `CCC(=O)N1C[C@]2(CCN(CC2)C(=O)Nc2c(C)noc2C)c2c([nH]c3cc(OC)ccc23)[C@H]1CO`, the viability index amounted to 1.01 ± 0.019. Next, `O=C(N[C@@H]1CC[C@@H](CC(=O)N2CCOCC2)O[C@H]1CO)c1cccc(F)c1`: 0.932 ± 0.041; `O=C(NCC1CCCCC1)[C@H]1[C@H](CO)[C@H]2Cn3c(cccc3=O)[C@@H]1N2C(=O)c1ccncc1`: 1.056 ± 0.0024. Next, `C[C@@H]1CN([C@H](C)CO)C(=O)Cc2cc(NC(=O)C3CC3)ccc2O[C@@H]1CN(C)S(=O)(=O)c1cn(C)cn1`: 0.971 ± 0.066; `O=C(Cc1cccnc1)N1[C@@H](CO)[C@H](c2ccccc2)[C@@H]1CNCC1CCC1`: 0.969 ± 0.051; `O=C(C[C@H]1C=C[C@H](NC(=O)c2ccncc2)[C@@H](CO)O1)NCC1CC1`: 1.08 ± 0.027. Next, `CN(C[C@@H]1[C@H](c2ccccc2)[C@@H](CO)N1Cc1ccccn1)S(C)(=O)=O`: 1.03 ± 0.036; `CN(C)C(=O)C[C@H]1CC[C@@H]2[C@H](COC[C@H](O)CN2C(=O)c2ccncc2)O1`: 1.06 ± 0.032; `CCC(=O)N1C[C@@H](O)COC[C@@H]2O[C@H](CC(=O)NC)CC[C@H]21`: 1.12 ± 0.048. On to `COc1ccc(-c2ccc([C@H]3[C@H]4CN(Cc5ccccc5)CC(=O)N4[C@H]3CO)cc2)cc1`, for which the viability index was found to be 1.04 ± 0.02.

On to `C[C@@H]1CN([C@H](C)CO)C(=O)c2cc(NC(=O)CCC(F)(F)F)ccc2O[C@@H](C)CCCCO[C@@H]1CN(C)C(=O)c1ccncc1`, for which the viability index was 1.01 ± 0.023.

The compound `O=C(C[C@H]1C[C@@H]2c3cc(NC(=O)CC4CC4)ccc3O[C@@H]2[C@@H](CO)O1)NCC1CC1` gave a viability index of 1.02 ± 0.012. Compound `O=C(C[C@H]1C[C@@H]2c3cc(NC(=O)C4CCOCC4)ccc3O[C@@H]2[C@@H](CO)O1)NCc1cccnc1` displayed a viability index of 1.06 ± 0.018. The figure for `CN1CCN(C(=O)C[C@H]2CC[C@@H]3[C@H](COC[C@@H](O)CN3CC3CCCCC3)O2)CC1` is 1.09 ± 0.021. The figure for `COc1ccc(NC(=O)Nc2cccc3c2O[C@H](CN(C)Cc2ccc(C(=O)O)cc2)[C@H](C)CN([C@@H](C)CO)C3=O)cc1` is 1 ± 0.091; for `Cc1noc(C)c1S(=O)(=O)Nc1ccc2c(c1)CC(=O)N([C@@H](C)CO)C[C@H](C)[C@H](CN(C)Cc1ccc(Oc3ccccc3)cc1)O2` it is 0.923 ± 0.045. Turning to `CS(=O)(=O)Nc1ccc2c(c1)[C@H]1C[C@H](CC(=O)NCc3cc(F)ccc3F)O[C@H](CO)[C@H]1O2`, the viability index came out at 1.1 ± 0.061. Next, `CCCNC(=O)C[C@@H]1CC[C@@H]2[C@H](COC[C@H](O)CN2C(=O)Nc2ccc(Cl)c(Cl)c2)O1`: 1.01 ± 0.1.
